According to PMC8964761 (2022):
One block for each binder: values may come before it.

Assays:
[1] = biological target: full-length single-chain uPA (scuPA) (UniProt P00749); experiment: SPR
[2] = biological target: full-length single-chain uPA (scuPA) (UniProt P00749, non-covalent, domain-swapped (D1) homodimer; N-glycosylated (Drosophila S2); disulfides; mature residues 1-277 = precursor 23-299; vector-derived N-terminal RS seen in PDB 7E17 omitted); experiment: SPR

koff [1]: 0.000115 s⁻¹
B1: soluble uPAR (suPAR), monomer (receptor)
chain: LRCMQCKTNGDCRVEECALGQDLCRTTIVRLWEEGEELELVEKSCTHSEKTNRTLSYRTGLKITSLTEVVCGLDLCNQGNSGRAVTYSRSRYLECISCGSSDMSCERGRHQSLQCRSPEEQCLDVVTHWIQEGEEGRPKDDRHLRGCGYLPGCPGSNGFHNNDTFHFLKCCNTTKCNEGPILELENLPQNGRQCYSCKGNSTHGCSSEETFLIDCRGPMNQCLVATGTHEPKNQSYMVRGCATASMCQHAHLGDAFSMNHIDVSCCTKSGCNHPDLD

koff [2]: 0.000129 s⁻¹
B2: dimeric suPAR (receptor)
chain: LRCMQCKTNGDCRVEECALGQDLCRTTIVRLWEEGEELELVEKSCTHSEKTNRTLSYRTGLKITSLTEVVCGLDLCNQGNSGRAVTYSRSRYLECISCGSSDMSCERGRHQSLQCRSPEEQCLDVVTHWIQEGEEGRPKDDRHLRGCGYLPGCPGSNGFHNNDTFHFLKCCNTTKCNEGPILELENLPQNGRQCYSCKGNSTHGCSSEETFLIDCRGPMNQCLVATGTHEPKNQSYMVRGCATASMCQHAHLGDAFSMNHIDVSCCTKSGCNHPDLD
